From paper PMC4336329 (PLoS ONE, 2015)
About 2,200 (0.71%) of roughly 310,000 compounds showed an effect of 50% or more. The effect is printed as a negative number. The list shows a part of the results.

Target: human ether-à-go-go-related gene (hERG) potassium channel (human, UniProt Q12809)
Test: primary screen, population patch clamp on CHO cells stably expressing hERG

Chain of human ether-à-go-go-related gene (hERG) potassium channel (Q12809 whole entry, looked up): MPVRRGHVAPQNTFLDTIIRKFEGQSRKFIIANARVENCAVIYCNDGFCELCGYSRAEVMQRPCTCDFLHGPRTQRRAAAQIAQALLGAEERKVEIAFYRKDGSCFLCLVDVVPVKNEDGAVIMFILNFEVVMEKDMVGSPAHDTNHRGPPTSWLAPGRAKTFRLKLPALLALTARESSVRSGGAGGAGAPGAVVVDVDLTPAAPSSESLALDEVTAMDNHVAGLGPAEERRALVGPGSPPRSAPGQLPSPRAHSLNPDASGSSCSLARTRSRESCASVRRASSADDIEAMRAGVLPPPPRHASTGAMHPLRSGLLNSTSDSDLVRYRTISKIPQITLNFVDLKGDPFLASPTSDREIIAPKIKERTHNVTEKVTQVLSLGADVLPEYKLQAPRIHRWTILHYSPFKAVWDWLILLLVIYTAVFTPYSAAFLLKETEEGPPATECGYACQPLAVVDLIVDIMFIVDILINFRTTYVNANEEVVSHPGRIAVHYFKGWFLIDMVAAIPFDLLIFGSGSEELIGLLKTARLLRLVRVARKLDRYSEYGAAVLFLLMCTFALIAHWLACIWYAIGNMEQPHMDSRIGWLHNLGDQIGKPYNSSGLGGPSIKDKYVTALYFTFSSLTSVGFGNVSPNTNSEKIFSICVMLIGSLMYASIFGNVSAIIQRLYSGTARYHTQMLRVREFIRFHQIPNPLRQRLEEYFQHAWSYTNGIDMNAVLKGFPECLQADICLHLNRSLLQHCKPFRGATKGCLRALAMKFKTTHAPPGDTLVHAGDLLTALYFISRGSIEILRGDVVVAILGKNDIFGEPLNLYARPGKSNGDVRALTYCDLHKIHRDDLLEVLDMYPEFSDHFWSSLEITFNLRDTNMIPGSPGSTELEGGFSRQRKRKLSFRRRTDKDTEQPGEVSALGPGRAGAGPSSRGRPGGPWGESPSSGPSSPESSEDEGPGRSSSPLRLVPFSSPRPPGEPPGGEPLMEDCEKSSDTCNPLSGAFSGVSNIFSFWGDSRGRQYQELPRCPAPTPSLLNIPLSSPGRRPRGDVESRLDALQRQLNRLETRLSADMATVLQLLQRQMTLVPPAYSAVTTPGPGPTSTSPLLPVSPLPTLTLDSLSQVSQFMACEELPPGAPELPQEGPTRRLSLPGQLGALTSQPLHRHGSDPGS

First: OC1(c2ccc(Cl)cc2)CCN(Cc2cn[nH]c2-c2ccccc2)CC1
Second: Cc1ccccc1NC(=S)N1CCN(c2ccccc2)CC1
The “hERG current change (%, negative = inhibition) at 1uM” value of the first is lower: -46% for the first, 16.9% for the second.

Going from O=C(O)c1cccc(S(=O)(=O)Nc2ccc3c(c2)OCO3)c1 to O=C(O)c1cc(S(=O)(=O)Nc2ccccc2C(=O)O)ccc1O, the “hERG current change (%, negative = inhibition) at 1uM” value falls from 15.6% to 6.16%.

Going from Cc1ccc(C(=O)OCC(=O)c2c[nH]c3ccccc23)cc1NC(=O)c1ccco1 to CCOc1ccc(Br)cc1S(=O)(=O)Nc1ccc(C(=O)Nc2ccccc2OC)cc1, the “hERG current change (%, negative = inhibition) at 1uM” value rises from 4.66% to 7.7%.

Compared with CCN1CCOC(CC(=O)Nc2ccc([N+](=O)[O-])cc2)C1=O (stereo not drawn), CCN=C1SC(CC(=O)Nc2ccc3c(c2)OCO3)C(=O)N1CC (stereo not drawn) is lower in “hERG current change (%, negative = inhibition) at 1uM” value: 8.4% for the first, 8.07% for the second.

First: CN(C)S(=O)(=O)Oc1ccsc1C(=O)Nc1cccc(Cl)c1
Second: NC(=O)c1cc2ccccc2o/c1=N/NC(=O)c1cccc(Cl)c1
The “hERG current change (%, negative = inhibition) at 1uM” value of the first is higher: 16.6% for the first, 1.94% for the second.

Going from COc1ccc(C(=O)C2CCCN(S(=O)(=O)c3cccc(C)c3)C2)c(C)c1 (stereo not drawn) to CN(C)C(=O)N1CCN(S(=O)(=O)c2ccc3ccccc3c2)CC1, the “hERG current change (%, negative = inhibition) at 1uM” value falls from 17.5% to 10.5%.

Compared with O=C(c1ccccc1)C(O)C(c1ccccc1)N1CCOCC1 (stereo not drawn), O=C(N1CCCC1)n1c(Cc2ccccc2)nc2ccccc21 is lower in “hERG current change (%, negative = inhibition) at 1uM” value: 14.3% for the first, -5.36% for the second.

First: CC(C(=O)C12CC3CC(CC(C3)C1)C2)N1CCOCC1.Cl (stereo not drawn)
Second: Cc1ccc(S(=O)(=O)NC(CC(C)C)C(=O)N2CCOCCOCCOCCOCC2)cc1 (stereo not drawn)
The “hERG current change (%, negative = inhibition) at 1uM” value of the first is higher: 20.5% for the first, 8.13% for the second.

Compared with COc1ccc(C(=O)CCC(=O)Nc2cccnc2)cc1, Cc1cccc(NC(=O)/C(C#N)=C\c2cccnc2)c1 is lower in “hERG current change (%, negative = inhibition) at 1uM” value: 2.13% for the first, -0.281% for the second.

Compared with O=C(Cn1cncn1)NCc1cc(F)ccc1F, CCOC(=O)Cn1ccc(NC(=O)COc2ccc(F)cc2)n1 is lower in “hERG current change (%, negative = inhibition) at 1uM” value: 13.8% for the first, 3.4% for the second.

Compared with CC(C)(C)NC(=O)C(c1ccc(F)cc1)N(Cc1ccco1)C(=O)c1csnn1 (stereo not drawn), CCOc1ccc(C(C(=O)NCCOC)N(CCOC)C(=O)CCC(=O)Nc2ccccn2)cc1 (stereo not drawn) is lower in “hERG current change (%, negative = inhibition) at 1uM” value: 8.39% for the first, -8.39% for the second.

First: Cc1cc2cc(C)c3nnc(SCC(=O)N4CCN(C(=O)c5ccco5)CC4)n3c2cc1C
Second: CCOC(=O)C1(CCc2ccccc2)CCN(C(=O)c2cccc(C)n2)CC1
The “hERG current change (%, negative = inhibition) at 1uM” value of the first is lower: 2.79% for the first, 7.53% for the second.

Going from CC(=O)c1cccc(NC(=O)C2C(c3ccccc3)C2(Cl)Cl)c1 (stereo not drawn) to CC(NC(=O)NC(=O)c1cccc(Cl)c1)c1ccccc1 (stereo not drawn), the “hERG current change (%, negative = inhibition) at 1uM” value falls from 15.9% to 15.4%.

Compared with CC(C)N(CCC#N)C(=O)Nc1ccc2c(c1)CCO2, CSCCC(NS(=O)(=O)c1ccc(Cl)c(Cl)c1)C(=O)O (stereo not drawn) is lower in “hERG current change (%, negative = inhibition) at 1uM” value: 9.98% for the first, 7.31% for the second.

Compared with COc1ccc([N+](=O)[O-])cc1NC(=O)C(C)OC(=O)C1c2ccccc2Oc2ccccc21 (stereo not drawn), O=C(NCC(c1ccco1)N1CCc2ccccc2C1)c1ccc([N+](=O)[O-])cc1 (stereo not drawn) is lower in “hERG current change (%, negative = inhibition) at 1uM” value: 22.1% for the first, -7.15% for the second.

Going from Cc1ccc(NC(=O)NCc2ccc3[nH]c(C)cc3c2)cc1 to COc1ccc(COc2ccc3c(C)cc(=O)oc3c2)cc1, the “hERG current change (%, negative = inhibition) at 1uM” value falls from 9.68% to 7.12%.

First: O=C(CNC(=O)COc1ccccc1)NCc1ccccc1F
Second: CCN(CC(=O)Nc1c(F)cccc1F)C(=O)Cc1ccccc1
The “hERG current change (%, negative = inhibition) at 1uM” value of the first is lower: 4.01% for the first, 21.1% for the second.

Going from O=C1N(Nc2ccccc2)C(c2ccc(Br)cc2)C12CCCC2 (stereo not drawn) to COc1ccccc1CN1C[C@@H]2C[C@@H](c3cccc(C)c3)N3CCC[C@@]23C1=O, the “hERG current change (%, negative = inhibition) at 1uM” value falls from 18.3% to -2.68%.

Going from Cc1ccccc1NC(=O)CSc1nc(N)c2c3c(sc2n1)CSC(C)(C)C3 to CCCSc1nc(N)c2c3c(sc2n1)CN(C)CC3, the “hERG current change (%, negative = inhibition) at 1uM” value falls from 10.8% to -2.01%.

First: CC(C)CCN1CCN(C2CSCCSC2)CC1CCO (stereo not drawn)
Second: Cc1ccc(S(=O)(=O)N2CCC(C(=O)OCC(=O)N3CC(C)CC(C)C3)CC2)cc1C (stereo not drawn)
The “hERG current change (%, negative = inhibition) at 1uM” value of the first is lower: 8.36% for the first, 13.2% for the second.

Compared with CCN(CC)c1ccc(SS(=O)(=O)[O-])cc1.[Na+], CCN(CC)S(=O)(=O)c1ccc(C(=O)OCC(=O)c2ccc3c(c2)NC(=O)CO3)cc1 is lower in “hERG current change (%, negative = inhibition) at 1uM” value: 4.84% for the first, 3.29% for the second.

Compared with Cc1cnc(NC(=O)C2(c3ccccc3)CC2)s1, O=C(N/N=C/c1ccc(Cl)s1)C(O)c1ccccc1 (stereo not drawn) is higher in “hERG current change (%, negative = inhibition) at 1uM” value: 5.59% for the first, 16.4% for the second.

Going from COC(=O)CN(C)C(=O)c1cccc(OC2CCN(S(=O)(=O)N(C)C)CC2)c1 to COC(=O)c1c(NC(=O)c2ccc(S(=O)(=O)N3CCOCC3)cc2)sc2c1CCN(C(C)C)C2, the “hERG current change (%, negative = inhibition) at 1uM” value falls from 13.6% to 8.34%.

Going from CC(OC(=O)c1cc(Br)ccc1O)C(=O)Nc1ccc(S(=O)(=O)N2CCCC2)cc1 (stereo not drawn) to COC(=O)c1cnc(Oc2ccc(NC(=O)NC(=O)c3c(F)cccc3Cl)cc2)cc1C(F)(F)F, the “hERG current change (%, negative = inhibition) at 1uM” value rises from 5.94% to 12.2%.

First: CC(C)C(=O)Nc1ncc2c(n1)CC(c1cccs1)CC2=O (stereo not drawn)
Second: O=C(Nc1ncnc2sc3c(c12)CCC3)c1ccco1
The “hERG current change (%, negative = inhibition) at 1uM” value of the first is lower: -1.71% for the first, 6.71% for the second.

Compared with C/C(=N\NC(=O)c1ccc(NS(=O)(=O)c2cccs2)cc1)c1ccncc1, O=C(O)c1ccc(N/N=C/c2ccc(-c3ccccc3Cl)o2)cc1 is higher in “hERG current change (%, negative = inhibition) at 1uM” value: 8.14% for the first, 14.3% for the second.

Compared with COC(=O)c1c(-c2ccccc2)csc1NC(=O)C1CC=CCC1C(=O)O (stereo not drawn), O=C(OC1Cn2c(=O)ccc(=O)n2C1)c1ccccc1 is lower in “hERG current change (%, negative = inhibition) at 1uM” value: 20.5% for the first, 10.7% for the second.

Going from C=CCNC(=O)c1ccc(-c2cccc([N+](=O)[O-])c2)o1 to O=C(N/N=C/c1ccco1)c1ccc(Br)o1, the “hERG current change (%, negative = inhibition) at 1uM” value rises from 0.345% to 15.9%.

First: CCc1sc(NC(=O)CCC(=O)O)nc1-c1cc2ccccc2oc1=O
Second: O=C(CCC(=O)N1CCSc2ccccc21)Nc1cccc(F)c1
The “hERG current change (%, negative = inhibition) at 1uM” value of the first is higher: 16% for the first, 3.36% for the second.

Compared with c1csc(Cc2nn3c(-c4ccncc4)nnc3s2)c1, O=C(CCc1nnc(Cc2ccc(-c3ccccc3)cc2)o1)NCCc1ccccn1 is higher in “hERG current change (%, negative = inhibition) at 1uM” value: -4.09% for the first, 6.67% for the second.

First: COc1ccc(-c2noc(CCC(=O)NC3CCCCC3)n2)cc1OC
Second: COc1ccc(CCNC(=O)c2nonc2N)cc1OC
The “hERG current change (%, negative = inhibition) at 1uM” value of the first is higher: 13.2% for the first, 3.98% for the second.

First: Cc1cc([N+](=O)[O-])nn1CC(=O)N1CCc2ccccc2C1
Second: CC(C)C(=O)N1CCN(c2ccc([N+](=O)[O-])c(NC(C)c3ccccc3)c2)CC1 (stereo not drawn)
The “hERG current change (%, negative = inhibition) at 1uM” value of the first is lower: 2.28% for the first, 7.73% for the second.

Compared with CC(=O)c1ccc(NC2CC(O)C(O)CO2)cc1 (stereo not drawn), Cc1ccc(NC(=S)N(Cc2ccc(Cl)cc2)Cc2ccc(C(=O)O)cc2)cc1Cl is lower in “hERG current change (%, negative = inhibition) at 1uM” value: 6.92% for the first, -0.489% for the second.

Compared with CCCCn1c(-c2sccc2C)n[nH]c1=S, COc1ccccc1/C=C/C=N/n1c(COc2ccccc2)n[nH]c1=S is lower in “hERG current change (%, negative = inhibition) at 1uM” value: 16% for the first, 11.9% for the second.

Compared with CC1CC(C)CN(c2cc(N(C)CCO)c([N+](=O)[O-])c3nonc23)C1 (stereo not drawn), CN(C)Cc1c(C(=O)N/N=C/c2ccoc2)nnn1-c1nonc1N is higher in “hERG current change (%, negative = inhibition) at 1uM” value: 0.257% for the first, 1.15% for the second.

Compared with O=C(CCNc1cc(Cl)cc(Cl)c1)c1cccs1, Cn1c(C(=O)NN)cc2cc(OCc3ccccc3)ccc21 is lower in “hERG current change (%, negative = inhibition) at 1uM” value: 19.9% for the first, 14.4% for the second.

Compared with COc1cccc(C2CC(=O)Nc3c2c(=O)[nH]c2ncnn32)c1 (stereo not drawn), Cc1[nH]c(=S)[nH]c(=O)c1CCOc1ccccc1 is higher in “hERG current change (%, negative = inhibition) at 1uM” value: 2.55% for the first, 11.4% for the second.

First: S=C(NCCC1=CCCCC1)Nc1ccc(Cl)cc1
Second: O=C(c1cc(-c2cccc(O)c2)on1)N1CCCC1
The “hERG current change (%, negative = inhibition) at 1uM” value of the first is lower: 10.1% for the first, 10.2% for the second.

First: CC(C)NC[C@@H](O)c1ccc(O)c(O)c1.O=C(O)C(O)C(O)C(=O)O
Second: COC(=O)c1ccc(OC(=O)c2nn(C)cc2Cl)c(OC)c1
The “hERG current change (%, negative = inhibition) at 1uM” value of the first is higher: 15.6% for the first, 11.5% for the second.

First: Cc1sc2nc3n(c(=O)c2c1C)CCCS3
Second: Cc1cccc(C)c1N1C(=O)c2ccccc2C1=O
The “hERG current change (%, negative = inhibition) at 1uM” value of the first is lower: 1.27% for the first, 1.61% for the second.

First: COCCNc1nc(N2CCCCC2)c2cnn(C)c2n1
Second: CCOC(=O)CSc1nc2cc(C(=O)N3CCC(C(N)=O)CC3)ccc2c(=O)n1C1CCCCC1
The “hERG current change (%, negative = inhibition) at 1uM” value of the first is higher: 8.76% for the first, 4.05% for the second.

Going from Cc1cc(C(=O)CN2C(=O)c3ccccc3S2(=O)=O)c(C)n1-c1ccccc1 to COc1ccc(-n2c(Cc3cc(=O)[nH]c(=O)[nH]3)nnc2SCC(=O)Nc2ccccc2)cc1, the “hERG current change (%, negative = inhibition) at 1uM” value falls from 12.1% to 4.28%.

Compared with Clc1ccc2nsnc2c1[NH2+]C1=NCCN1.[Cl-], O=C(O)C(=O)O.O=[N+]([O-])c1cc2c(cc1CNCCc1ccc3c(c1)OCO3)OCO2 is lower in “hERG current change (%, negative = inhibition) at 1uM” value: 10.9% for the first, -13.2% for the second.

First: CCOC(=O)C1(Cc2ccc(O)cc2)NC(c2ccccc2F)C2C(=O)N(C)C(=O)C21 (stereo not drawn)
Second: Cc1cc2c(N=NC(=O)CCc3ccccc3)c(O)[nH]c2cc1Br
The “hERG current change (%, negative = inhibition) at 1uM” value of the first is lower: 1.18% for the first, 5.35% for the second.

First: COC(=O)C1=C(C)NC(=O)C1(NC(=O)CN1CCCC1=O)C(F)(F)F (stereo not drawn)
Second: CCOCCCNC(=O)CN1CCN(Cc2ccccc2C)C1=O
The “hERG current change (%, negative = inhibition) at 1uM” value of the first is higher: 4.49% for the first, 4.41% for the second.
